Measurements: PubChem BioAssay AID1240 (Sanford-Burnham Center for Chemical Genomics, 2008)
About 800 (1.6%) of roughly 50,000 compounds showed an effect of 50% or more. The list shows a part of the results.

target: Bcl-2-like protein 10 (Homo sapiens) (UniProt Q9HD36); test: TR3 peptide-Bcl-B binding displacers, biochemical primary FP assay, phenotype converters (AID 1240); details: GST-Bcl-B / FITC-TR3 peptide fluorescence polarization; stronger effect = higher value; compound at 3.75 mg/L;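 further: 0% = Bcl-B with tracer peptide and DMSO and 100% = tracer peptide lacking Bcl-B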
Sequence of UniProt Q9HD36 (Q9HD36 whole entry, looked up): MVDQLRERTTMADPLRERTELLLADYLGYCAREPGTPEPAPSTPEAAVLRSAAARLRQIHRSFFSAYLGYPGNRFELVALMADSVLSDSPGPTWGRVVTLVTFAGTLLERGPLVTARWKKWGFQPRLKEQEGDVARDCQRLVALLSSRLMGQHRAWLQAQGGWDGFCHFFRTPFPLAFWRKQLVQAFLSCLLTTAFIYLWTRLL

Going from `CCOC(=O)c1c(N)nc(C)n1-c1ccc(OC)cc1` to `CCOC(=O)c1ccc(-n2c(C)cc(/C=N/n3cnnc3)c2C)cc1`, the displacement falls from 13.5% to 12.1%.

Compared with `O=C(c1ccc(S(=O)(=O)c2ccc(Cl)cc2)cc1)c1ccc(S(=O)(=O)c2ccc(Cl)cc2)cc1`, `Cc1ccc(Cl)cc1N(Cc1ccc(C(=O)Nc2cccnc2)cc1)S(=O)(=O)c1ccccc1` is lower in displacement: -2.1% for the first, -3.4% for the second.

First: COc1ccc(/C=C2/SC(=S)N(CC(=O)Nc3ccc(F)c(Cl)c3)C2=O)cc1OC
Second: COc1cc(/C=C2/SC(=S)N(c3ccccc3)C2=O)ccc1OS(=O)(=O)c1ccc(C)cc1
The displacement of the first is higher: 17.9% for the first, 9.7% for the second.

Going from `CCOc1cc(C=O)ccc1OCCOc1ccc([N+](=O)[O-])cc1` to `COc1ccccc1CNCc1ccc([N+](=O)[O-])cc1`, the displacement falls from 14.7% to 2%.

Going from `O=C(COc1ccc(Cl)cc1)NNC(=O)C1CCCCC1` to `NNC(=O)c1ccc(OCc2ccc(Cl)cc2)cc1`, the displacement rises from -19.1% to 12.7%.

First: COc1ccc(C2/C(=C(/O)c3ccccc3)C(=O)C(=O)N2c2cccc([N+](=O)[O-])c2)cc1 (configuration not stated)
Second: COc1ccc(/C(O)=C2/C(=O)C(=O)N(CCCCCC(=O)O)C2c2ccccc2)cc1 (configuration not stated)
The displacement of the first is lower: -6.9% for the first, -0.1% for the second.

First: Cc1ccc(/C=C2\SC(=S)N(CCS(=O)(=O)O)C2=O)cc1
Second: CCN1C(=O)/C(=C\c2cccc(OS(=O)(=O)c3ccc(C)cc3)c2)SC1=S
The displacement of the first is higher: -1.7% for the first, -7.4% for the second.

Compared with `O=C(c1ccccc1Br)N1CCN(c2cc(N3CCCC3)c(F)cc2[N+](=O)[O-])CC1`, `O=C(c1ccccc1I)N1CCN(c2cccc(Cl)c2)CC1` is higher in displacement: 3% for the first, 3.8% for the second.

First: CCOC(=O)C1=C(O)/C(=C/c2cccc(OC)c2)SC1=Nc1ccccc1
Second: CCOC(=O)c1cccc(NC(=O)COc2ccccc2)c1
The displacement of the first is lower: -32% for the first, 4.5% for the second.

Compared with `COC(=O)c1ccc(C(=O)OC)c(NC(=O)CC(c2ccccc2)c2ccccc2)c1`, `O=C(Cc1ccccc1)Nc1cccc(NC(=O)c2cccc(Cl)c2)c1` is lower in displacement: 63.5% for the first, 11.8% for the second.

First: COc1ccc(-n2c(=O)c3c4c(sc3n3c(=S)[nH]nc23)COC(C)(C)C4)cc1
Second: COc1ccc(C2C3COC(C)(C)CC3=NN2C(C)=O)cc1 (configuration not stated)
The displacement of the first is lower: -6.8% for the first, 1.1% for the second.

First: CCOC(=O)C1CCN(C(=O)C(c2ccccc2)c2ccccc2)CC1
Second: Cc1ccccc1C(=O)O/N=C(\N)c1ccccc1
The displacement of the first is higher: 9.6% for the first, -4.8% for the second.

Going from `CCn1c2ccccc2c2cc(C3C(C(=O)OCC4CCCO4)=C(C)NC4=C3C(=O)CCC4)ccc21` (configuration not stated) to `CCCOC(=O)C1=C(C)NC2=C(C(=O)CC(C)(C)C2)C1c1ccc(Cl)c([N+](=O)[O-])c1` (configuration not stated), the displacement rises from -14% to -8.4%.

Compared with `O=C(/C=C/c1ccccc1)C1=C(O)C(=O)N(c2cccc(C(F)(F)F)c2)C1c1ccccc1[N+](=O)[O-]` (configuration not stated), `O=C(CSc1nc2ccccc2o1)Nc1ccc(/C=C/c2ccccc2)cc1` is higher in displacement: -5% for the first, 4% for the second.

First: Cc1ccc(C(=O)Nc2ccc3nn(-c4ccc(Cl)cc4)nc3c2)cc1[N+](=O)[O-]
Second: COc1cc([N+](=O)[O-])ccc1NC(=O)c1ccc(C)c(C)c1
The displacement of the first is higher: 10.6% for the first, 6.2% for the second.

Compared with `COc1ccc(C(=O)/C=C/Nc2ccccc2I)cc1OC`, `COC(=O)c1ccc(N/C=C/C(=O)c2ccccc2)cc1` is lower in displacement: 13.2% for the first, 11.1% for the second.

Going from `Cc1ccc(S(=O)(=O)Nc2cccc([N+](=O)[O-])c2)cc1` to `O=[N+]([O-])c1ccc(S(=O)(=O)Nc2ccc3c(c2)OCCO3)cc1`, the displacement falls from -6.7% to -8.9%.

First: COc1ccc(/C=C/C(=O)c2ccc(S(=O)(=O)NCc3cccnc3)cc2)cc1
Second: CC(=O)Nc1ccc(S(=O)(=O)N/N=C/c2cccnc2)cc1
The displacement of the first is higher: 10.3% for the first, -9.4% for the second.

Going from `CCc1ccc(OCc2nnc(N)s2)cc1` to `CCOc1ccc(Nc2cc(C)c3ccccc3n2)cc1`, the displacement rises from 6% to 12.7%.

Going from `CSC1=C(C#N)C2(CCCCC2)C(C#N)C(=O)N1` (configuration not stated) to `N#Cc1c2n(c3c(=O)n(Cc4ccc(Cl)cc4)cnc13)CCCC2`, the displacement falls from 2.3% to -2%.

Going from `Cc1[nH]oc(=O)c1N=Nc1ccc([N+](=O)[O-])cc1` to `O=c1oc2cc(OCc3ccc([N+](=O)[O-])cc3)ccc2c2c1CCCC2`, the displacement falls from 4.7% to -3.3%.

First: CC1(C)CC(NC(=S)Nc2cccc(Cl)c2)CC(C)(C)N1
Second: CCOC(=O)CNC(=O)c1cccc(Cl)c1
The displacement of the first is lower: -3.3% for the first, 13.7% for the second.

Compared with `CCNC(=S)NCCN1CCCCC1`, `C=CCNC(=O)C(=O)NCCN1CCOCC1` is higher in displacement: -4.6% for the first, 7.7% for the second.

First: O=C(NCCN1CCCC1=O)Nc1ccccc1
Second: N#C/C(C(=O)c1ccccc1)=C1/CCCN1
The displacement of the first is higher: 10.9% for the first, 0.5% for the second.

Compared with `CSCCC1NC(=S)N(c2ccccc2)C1=O` (configuration not stated), `Cc1cccc(N2C(=O)/C(=C/c3cc(C)n(C)c3C)C(=O)NC2=S)c1` is lower in displacement: 4.4% for the first, 1.9% for the second.

Going from `COc1ccc(CN2CCN(Cc3cc(OC)c(OC)cc3OC)CC2)c(OC)c1` to `COc1ccc(CN2CCN(C(=O)c3cccs3)CC2)c(OC)c1OC`, the displacement falls from -2.4% to -5.4%.

Compared with `O=C(Nc1ccc2oc(-c3ccc(F)cc3Cl)nc2c1)c1ccco1`, `CC(=O)Nc1ccc(Cl)c(-c2nc3cc(C)c(C)cc3o2)c1` is higher in displacement: 1.8% for the first, 15.4% for the second.

Compared with `COc1cccc(C2=NN(C(=O)c3cccc([N+](=O)[O-])c3)C(O)(C(F)(F)F)C2)c1` (configuration not stated), `O=C(CSc1n[nH]c(-c2ccccc2)n1)c1cccc([N+](=O)[O-])c1` is lower in displacement: -1.1% for the first, -12.7% for the second.

Going from `O=C(NCc1ccc2c(c1)OCO2)C1CC(=O)N(c2ccccc2)C1` (configuration not stated) to `O=C(O)c1ccc(C(=O)NCc2ccccc2)c(C(=O)O)c1`, the displacement rises from -1.8% to 12.8%.

First: O=[N+]([O-])c1cccc(N=Cc2nc(-c3ccccc3)oc2O)c1
Second: Cc1ccn2c(C(=O)N/N=C\c3ccccc3[N+](=O)[O-])c(C)nc2c1
The displacement of the first is lower: -6.8% for the first, 5.2% for the second.

Compared with `CCc1ccc(S(=O)(=O)NNc2ccccc2)cc1`, `Cc1ccc(C(=O)Nc2cccc(Oc3ccccc3)c2)o1` is lower in displacement: 0.5% for the first, -8.5% for the second.

Compared with `O=C1c2ccccc2C(=O)c2c(NCCO)ccc(NCCO)c21`, `O=C1c2ccccc2C(=O)N1CC1=NCCc2ccccc21` is lower in displacement: 46.4% for the first, 0.5% for the second.

Going from `O=C(Oc1ccc(-c2nc3ccccc3[nH]2)cc1)c1ccc(Cl)cc1` to `COc1ccc(-c2cc(C(=O)Nc3cccc(C)c3)c3ccccc3n2)cc1`, the displacement falls from 13.6% to -13%.

Going from `CC(C)CCNS(=O)(=O)c1ccc(Cl)cc1` to `COc1ccc(S(=O)(=O)NC(C)C2C3CC4CC(C3)CC2C4)cc1` (configuration not stated), the displacement falls from 10.6% to 8.2%.

Going from `Cc1cc(C)c2oc(-c3ccc(C)c(NC(=O)c4ccc([N+](=O)[O-])cc4Cl)c3)nc2c1` to `CC(=O)NC1=NC(=O)/C(=C\c2ccc(-c3ccc(C)c([N+](=O)[O-])c3)o2)S1`, the displacement falls from 2.5% to -0.4%.

Compared with `O=C(COc1ccc(Cl)cc1Br)NCCCN1CCOCC1`, `Cc1ccc(OCCCN2CCOCC2)cc1` is higher in displacement: -7.4% for the first, 16.9% for the second.

First: COc1ccc(N2C(=O)NC(=O)/C(=C/c3ccc(I)o3)C2=O)cc1
Second: CC(=O)c1cccc(-c2ccc(/C=C3\C(=O)NC(=O)C(C#N)=C3C)o2)c1
The displacement of the first is lower: 3.6% for the first, 20.8% for the second.

First: CC(O)CP(=O)(c1ccccc1)c1ccccc1 (configuration not stated)
Second: CCN(Cc1ccccc1)C(=O)c1ccccc1[N+](=O)[O-]
The displacement of the first is higher: 3.3% for the first, -11.3% for the second.

First: CC1CCN(C(=O)c2ccc(S(=O)(=O)N3CCOCC3)cc2)CC1
Second: CCCC(CCC)C(=O)Nc1ccc2c(c1)N(C(=O)CN1CCN(C)CC1)c1ccccc1CC2
The displacement of the first is higher: 8% for the first, -6.7% for the second.

Going from `Cn1ccnc1Sc1ccc(C2Nc3ccc4ccccc4c3C3=C2C(=O)CC(C)(C)C3)cc1[N+](=O)[O-]` (configuration not stated) to `COc1ccccc1-n1c(SCC(=O)c2ccccc2)nc2ccccc2c1=O`, the displacement falls from 2.1% to -4.7%.

Compared with `CCOCCOC(=O)c1ccc(NC(=O)c2cccc(Cl)c2)cc1`, `COC(=O)c1ccc(NC(=S)NC(=O)/C=C/c2ccc(C)cc2)cc1` is higher in displacement: -5.4% for the first, 3.1% for the second.

First: Cn1c(N/N=C\c2ccc(Cl)cc2Cl)cc(=O)n(C)c1=O
Second: O=C(Nc1ccc(I)cc1Cl)c1ccc(-c2cccc(Cl)c2)o1
The displacement of the first is lower: -4.6% for the first, 14.6% for the second.

Compared with `Cc1nc(Nc2nc(O)cc(=O)[nH]2)nc2c(C)cccc12`, `CCc1cccc2c1=NC(=O)C=2c1sc(=S)[nH]c1O` is lower in displacement: 32.3% for the first, 1.7% for the second.

First: COc1cccc(/C=C(\C#N)C(=O)Nc2ccc(C)c(Cl)c2)c1O
Second: COc1cccc(NC(=O)/C=C/c2ccc(OC)c(Br)c2)c1
The displacement of the first is lower: -11.9% for the first, 13.6% for the second.

First: CCCOc1ccccc1NC(=O)CC1Sc2ccc(C(F)(F)F)cc2NC1=O (configuration not stated)
Second: CCN(CC)S(=O)(=O)c1cc(C(=O)OCc2ccccc2)ccc1Br
The displacement of the first is higher: 7.9% for the first, -8.7% for the second.

Compared with `COc1ccccc1N1CCN(/N=C\c2ccccc2OCC(=O)O)CC1`, `CCn1c2ccccc2c2cc(/C=N/N3CCN(c4ccccc4OC)CC3)ccc21` is lower in displacement: -2.4% for the first, -8.2% for the second.

Compared with `COc1cccc(C(c2c(C)[nH]n(-c3ccccc3)c2=O)c2c(C)[nH]n(-c3ccccc3)c2=O)c1O`, `O=C1C(Nc2ccccc2)=CC(Nc2ccccc2)/C1=C\c1ccccc1` (configuration not stated) is higher in displacement: 5.6% for the first, 7.2% for the second.

Going from `COc1ccc(-c2cc(C(F)(F)F)n3ncc(C(=O)N4CCN(Cc5ccccc5)CC4)c3n2)cc1` to `C/C(=N\N1CCN(Cc2cccc3ccccc23)CC1)c1ccncc1`, the displacement falls from -3.9% to -7.1%.

Going from `COc1ccc(/C=C(\NC(=O)c2ccc(Cl)cc2)C(=O)NCc2ccco2)cc1OC` to `COc1cc(C(=O)N/C(=C/c2ccc(Br)cc2)C(=O)NCCC(=O)O)cc(OC)c1OC`, the displacement falls from 8.8% to -3.8%.

Compared with `CSc1ccc(/C=N\NC(=O)COc2ccc(C)cc2)cc1`, `COC(=O)C1=C(O)/C(=C\c2ccccc2)N=C1C` is higher in displacement: 11.8% for the first, 13.5% for the second.

First: C=CCOC(=O)C1=C(C)NC(C)=C(C(=O)OCC=C)C1c1ccc(OC)c(OC)c1
Second: CCOC(=O)c1c(NC(=O)CSc2nnc3c(n2)[nH]c2ccccc23)sc2c1CCCC2
The displacement of the first is higher: 8.5% for the first, -10.2% for the second.

Going from `CCOc1ccccc1/C=N\n1c(C)nnc1C` to `COCCNCCOc1c(C)cc(Cl)cc1C`, the displacement rises from 0.4% to 7.2%.

Compared with `O=C(NCc1ccccc1)C(=O)Nc1c(O)c2ccccc2[nH]c1=O`, `CCc1c(C#N)c(N)nc2sc(C(=O)Nc3ccc(Br)cc3)c(N)c12` is higher in displacement: -5.2% for the first, 1.3% for the second.

Compound `C=C(C)CSc1nc(SCC(=C)C)c2c3c(sc2n1)COC(C)(C)C3` has a displacement of -1.2%.
